# Experimental data taken from PubChem BioAssay (NCATS).
# Several values for one entry are separate records, joined by “and”; a condition that tells them apart may be missing. Identical values can stand only once. Inconclusive results, whose numbers are uncertain, are shown with a selection of clear calls. For part of these data: No potency is given beside an inconclusive call; the fits are too rough. Activity calls are given as the source filed them. Unless noted, calls follow the shape of the dose curve; as a rule, active = well fitted curve in the direction sought with a large enough effect; inconclusive = small, poorly fitted or top-dose-only effect, or another doubt; inactive = no such curve, though single readings can be large; an effect the other way counts as inactive or inconclusive.
# Columns and labels:
# [1] = Cytometry Cell-Based qHTS for Inhibitors of the mTORC1 Signaling Pathway in MEF cells (AID 2668); also: potency is read from the fitted curve at half-maximal effect
# In short: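 WT MEFs (Tsc2-/-, p53-/- stably re-expressing WT Tsc2) in DMEM + 10% FBS received compounds 24 hrs after plating, for 24 hrs at 37 degree Celsius. Fixed cells stained with Alexa-488 anti-phospho-rpS6 Ser235/236 and propidium iodide; laser-scanning cytometry read-out.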
# [2] = biological target: ATPase family AAA domain-containing protein 5 (Homo sapiens) (UniProt Q96QE3); assay: Validation screen for small molecules that inhibit ELG1-dependent DNA repair in human embryonic kidney (HEK293T) cells expressing luciferase-tagged ELG1 (AID 493107); also: potency is read from the fitted curve at half-maximal effect; nearly all actives have a fitted effect of over 70% in size
# UniProt Q96QE3, sequence (Q96QE3 whole entry, looked up, the tested form may be a part): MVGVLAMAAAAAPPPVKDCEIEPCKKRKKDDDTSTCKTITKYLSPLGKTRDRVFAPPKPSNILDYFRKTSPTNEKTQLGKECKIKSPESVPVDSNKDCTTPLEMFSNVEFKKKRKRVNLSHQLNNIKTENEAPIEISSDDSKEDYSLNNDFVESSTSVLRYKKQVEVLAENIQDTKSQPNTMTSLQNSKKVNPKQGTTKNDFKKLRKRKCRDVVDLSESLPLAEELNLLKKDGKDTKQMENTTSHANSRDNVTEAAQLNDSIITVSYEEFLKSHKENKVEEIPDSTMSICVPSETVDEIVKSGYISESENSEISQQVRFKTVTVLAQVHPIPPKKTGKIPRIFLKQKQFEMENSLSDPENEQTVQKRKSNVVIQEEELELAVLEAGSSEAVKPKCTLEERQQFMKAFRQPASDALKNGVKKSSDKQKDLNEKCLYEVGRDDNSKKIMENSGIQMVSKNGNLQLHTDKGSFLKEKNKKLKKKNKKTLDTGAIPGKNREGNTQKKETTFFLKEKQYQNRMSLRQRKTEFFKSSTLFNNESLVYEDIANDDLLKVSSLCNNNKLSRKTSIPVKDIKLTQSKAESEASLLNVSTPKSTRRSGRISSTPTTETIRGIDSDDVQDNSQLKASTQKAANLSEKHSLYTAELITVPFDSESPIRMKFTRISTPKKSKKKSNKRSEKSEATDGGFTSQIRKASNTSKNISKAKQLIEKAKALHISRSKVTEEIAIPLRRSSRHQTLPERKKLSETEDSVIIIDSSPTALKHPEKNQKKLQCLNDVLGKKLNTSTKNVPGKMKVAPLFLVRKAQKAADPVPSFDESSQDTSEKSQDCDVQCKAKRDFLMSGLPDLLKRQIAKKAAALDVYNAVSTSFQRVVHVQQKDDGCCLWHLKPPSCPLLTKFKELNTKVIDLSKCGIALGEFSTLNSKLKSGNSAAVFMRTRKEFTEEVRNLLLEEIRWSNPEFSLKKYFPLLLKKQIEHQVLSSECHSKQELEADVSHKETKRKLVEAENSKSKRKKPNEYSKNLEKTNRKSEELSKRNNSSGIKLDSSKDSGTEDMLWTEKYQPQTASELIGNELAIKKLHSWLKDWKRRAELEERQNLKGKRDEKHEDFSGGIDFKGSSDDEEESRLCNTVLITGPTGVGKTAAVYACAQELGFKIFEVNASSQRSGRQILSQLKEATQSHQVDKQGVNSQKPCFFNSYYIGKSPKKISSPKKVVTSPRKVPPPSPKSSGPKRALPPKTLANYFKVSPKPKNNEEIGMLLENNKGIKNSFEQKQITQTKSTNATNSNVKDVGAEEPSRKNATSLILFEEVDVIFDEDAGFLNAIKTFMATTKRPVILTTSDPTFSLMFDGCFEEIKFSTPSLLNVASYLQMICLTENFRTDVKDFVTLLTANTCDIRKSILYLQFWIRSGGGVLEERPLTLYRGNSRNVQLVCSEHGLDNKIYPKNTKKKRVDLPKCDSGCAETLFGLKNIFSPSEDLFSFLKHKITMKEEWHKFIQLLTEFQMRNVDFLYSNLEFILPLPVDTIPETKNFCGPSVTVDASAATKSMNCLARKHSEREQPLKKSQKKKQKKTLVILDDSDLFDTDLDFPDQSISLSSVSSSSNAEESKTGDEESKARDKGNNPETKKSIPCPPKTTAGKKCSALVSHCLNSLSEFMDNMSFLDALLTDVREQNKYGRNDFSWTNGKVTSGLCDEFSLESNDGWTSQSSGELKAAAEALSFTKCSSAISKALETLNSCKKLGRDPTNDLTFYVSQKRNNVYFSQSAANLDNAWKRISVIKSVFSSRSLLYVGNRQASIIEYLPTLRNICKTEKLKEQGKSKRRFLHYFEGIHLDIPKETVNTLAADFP
# In short: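 Compounds reducing 5-fluorouridine-driven ELG1-luciferase signal in HEK293T cells were scored; exposure lasted 16 hr at 37 °C with luminescence detected via ONE-Glo.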
# [3] = P-glycoprotein substrates identified in KB-3-1 adenocarcinoma cell line, qHTS therapeutic library screen (AID 1346986); conditions: KB-3-1 parental cells viability, CellTiter-Glo, 72 h; also: nearly all actives have a fitted effect of over 60% in size;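 also: potency is read from the fitted curve at half-maximal effect; potency is for cytotoxicity meaning loss of cell viability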
# In short: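 Dose-response cytotoxicity, KB-3-1 vs P-gp-high KB-8-5-11, no colchicine in assay medium. Read: CellTiter-Glo at 72 h.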
# [4] = qHTS Assay for Lipid Storage Modulators (AID 1519; calls by dose curve; also: % is scaled to controls: 0 for no effect and ±100 for the full control effect); conditions: Drosophila S3 cells, BODIPY lipid droplet/cell ratio, laser cytometry, cells loaded with oleic acid; activity change, negative = inhibition: at 57.5 µM (top of the series)
# In short: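 Cells seeded at 5,000 per well were treated with compounds over a concentration series and loaded with oleic acid (400 uM, as added). Lipid droplet fluorescence (488 nm excitation, 500-530 nm channel) was read by laser-scanning cytometry and normalized to 20 uM Triacsin C.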
# PC15 = assay: qHTS profiling for inhibitors of Plasmodium falciparum proliferation (AID 504749); also: potency is read from the fitted curve at half-maximal effect; nearly all actives have a fitted effect of over 60% in size; conditions: P. falciparum in erythrocytes, SYBR Green DNA, 72 h; series mostly up to 28.7 µM
# In short: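 In a 72 h erythrocytic culture (37 C, humidified, 5% CO2) at 2.5% hematocrit and 0.3% starting parasitemia, compounds were tested; SYBR Green I in detergent lysis buffer stained parasite DNA overnight.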
# [5] = qHTS of pediatric cancer cell lines to identify multiple opportunities for drug repurposing: Confirmatory screen for BT-12 cells (AID 1347112); also: potency is read from the fitted curve at half-maximal effect; nearly all actives have a fitted effect of over 55% in size
# In short: (§1)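 Cells (500-1,000/well) rested 5 h, then received compounds for 48 h; metabolically active cells were measured by CellTiter-Glo luminescence. Final concentrations spanned up to 46 µM (MIPE, 11-point) or 0.59 nM-46 µM (NPC, 8-point) in primary screens, 11-point in follow-ups.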
# [6] = qHTS of pediatric cancer cell lines to identify multiple opportunities for drug repurposing: Confirmatory screen for NB-EBc1 cells (AID 1347115); also: nearly all actives have a fitted effect of over 45% in size; also: potency is read from the fitted curve at half-maximal effect
# In short: as §1
# [7] = qHTS of pediatric cancer cell lines to identify multiple opportunities for drug repurposing: Confirmatory screen for U-2 OS cells (AID 1347122); also: potency is read from the fitted curve at half-maximal effect; nearly all actives have a fitted effect of over 65% in size
# In short: as §1
# [8] = Quantitative High-Throughput drug screen in 47 multiple myeloma cell lines against the NCATS MIPE library collection: KMS27_JCRB cell viability assay (AID 1918970); conditions: KMS27 myeloma cells, CellTiter-Glo ATP viability, 48 h; viability (% of DMSO): at 45.8 µM (top of the series); also: potency is read from the fitted curve at half-maximal effect; nearly all actives have a fitted effect of over 30% in size
# In short: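 Myeloma cells (500 per well) were exposed to MIPE 4.0 compounds for 48 h at 37 °C, 5% CO2; viability was read as ATP luminescence with CellTiter-Glo, normalized to DMSO-only (100%) and media-only (0%) wells.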
# [9] = Quantitative High-Throughput drug screen in 47 multiple myeloma cell lines against the NCATS MIPE library collection: KMS20_JCRB cell viability assay (AID 1918973); conditions: CellTiter-Glo ATP, 48 h; viability (% of DMSO): at 45.8 µM (top of the series); also: nearly all actives have a fitted effect of over 45% in size; also: potency is read from the fitted curve at half-maximal effect
# In short: (§2)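 We plated 500 myeloma cells per well, pinned in MIPE 4.0 compounds, and incubated for 48 hours at 37C. ATP was then quantified with CellTiter-Glo, with DMSO and media-only wells defining 100% and 0%.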
# [10] = Quantitative High-Throughput drug screen in 47 multiple myeloma cell lines against the NCATS MIPE library collection: KMS21BM_JCRB cell viability assay (AID 1918974); conditions: ATP luminescence, 48 h; viability: at 45.8 µM (top of the series); also: potency is read from the fitted curve at half-maximal effect
# In short: as §2
# [11] = Quantitative High-Throughput drug screen in 47 multiple myeloma cell lines against the NCATS MIPE library collection: VP6_DJ cell viability assay (AID 1919867); conditions: ATP luminescence, 48 h; viability (% of DMSO): at 45.8 µM (top of the series); also: potency is read from the fitted curve at half-maximal effect; nearly all actives have a fitted effect of over 40% in size
# In short: (§3)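 ATP-based luminescence (CellTiter-Glo, 5 min RT incubation) quantified surviving cells following two days' treatment with MIPE 4.0 agents at 37 °C, 5% CO2.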
# [12] = Quantitative High-Throughput drug screen in 47 multiple myeloma cell lines against the NCATS MIPE library collection: EJM_DSMZ cell viability assay (AID 1918926; also: potency is read from the fitted curve at half-maximal effect; nearly all actives have a fitted effect of over 30% in size)
# In short: as §2
# [13] = Quantitative High-Throughput drug screen in 47 multiple myeloma cell lines against the NCATS MIPE library collection: MMM1_PLB cell viability assay (AID 1918976); also: potency is read from the fitted curve at half-maximal effect; nearly all actives have a fitted effect of over 35% in size
# In short: as §3
# [14] = Quantitative High-Throughput drug screen in 47 multiple myeloma cell lines against the NCATS MIPE library collection: MOLP8_DSMZ cell viability assay (AID 1918977); conditions: MOLP8 myeloma viability, CellTiter-Glo ATP luminescence, 48 h; viability (% of control): at 45.8 µM (top of the series); also: potency is read from the fitted curve at half-maximal effect; nearly all actives have a fitted effect of over 45% in size
# In short: as §3
# [15] = Quantitative High-Throughput drug screen in 47 multiple myeloma cell lines against the NCATS MIPE library collection: MM1R_ATCC cell viability assay (AID 1918981); also: potency is read from the fitted curve at half-maximal effect; nearly all actives have a fitted effect of over 35% in size
# In short: as §3
# [16] = biological target: Peroxisome proliferator-activated receptor gamma (Homo sapiens) (UniProt P37231); assay: qHTS assay for small molecule antagonists of peroxisome proliferator-activated receptor gamma signaling (AID 588537; active = well fitted inhibition curve with a large enough effect in the signal ratio, with a control signal flat, not every such curve was filed as active; inconclusive = small, poorly fitted or top-dose-only effect, or effect the other way, or a change in a side signal; the % refers to the signal ratio;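 also: reporter cells co-stimulated with 50 nM rosiglitazone agonist during compound treatment; % of control where 0% means no effect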); conditions: HEK293 PPARg-UAS-bla, beta-lactamase ratio, antagonist mode; activity, negative = inhibition: at 76.8 µM (top of the series)
# In short: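 Cell-based beta-lactamase assay; GW9662 served as the antagonist control. Stimulation used rosiglitazone, final 50 nM, 16 h, 37 C.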
# [17] = qHTS assay for small molecule agonists of the antioxidant response element (ARE) signaling pathway (AID 651741; active = well fitted activation curve with a large enough effect in the signal ratio; inconclusive = small, poorly fitted or top-dose-only effect, or effect the other way, or a change in a side signal; the % refers to the signal ratio; also: potency is read from the fitted curve at half-maximal effect; as to activation: % of control where 0% means no effect); conditions: HepG2 ARE-bla reporter, beta-lactamase FRET ratio, 16 h; activation: at 96 µM (top of the series)
# In short: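 Agonist activity is measured as ARE-driven beta-lactamase expression in a stable HepG2 reporter line, using 16 h compound treatment at 37 C and a FRET substrate fluorescence readout after 2 h.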
# [18] = Quantitative High-Throughput drug screen in 47 multiple myeloma cell lines against the NCATS MIPE library collection: KMS12PE_JCRB cell viability assay (AID 1918972); also: potency is read from the fitted curve at half-maximal effect; nearly all actives have a fitted effect of over 30% in size
# In short: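 Inhibition of cell viability is measured here. Each line was plated at 500 cells per well, treated with MIPE 4.0 drugs, kept 48 hours at 37C, then assayed for ATP content by CellTiter-Glo luminescence.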
# [19] = Quantitative High-Throughput drug screen in 47 multiple myeloma cell lines against the NCATS MIPE library collection: L363_DSMZ cell viability assay (AID 1918984); conditions: L363 myeloma viability, CellTiter-Glo ATP luminescence, 48 h; viability (% of control): at 45.8 µM (top of the series); also: nearly all actives have a fitted effect of over 40% in size; also: potency is read from the fitted curve at half-maximal effect
# In short: as §3
# Tags tell the direction and shape of the fitted curve.
smiles,measurement,setting,value
Nc1ncnc2n[nH]c(Nc3ccc(F)cc3)c12,Potency,[1],"inconclusive [falling, partial curve]"
same,Potency,[2],"inconclusive [activator, partial curve, poor fit]"
CN(C)CCCN1c2ccccc2Sc2ccccc21,Potency,[1],"inconclusive [falling, single point]"
same,Potency,[2],"inconclusive [inhibitor, single point]"
Nc1nccn2c(C3CCC(C(=O)O)CC3)nc(-c3cc4cccc(Cl)c4[nH]3)c12 (stereo not drawn),Potency,[3],active: 1.64 µM
CN(C)CCOC(c1ccc(Cl)cc1)c1ccccn1 (stereo not drawn),"activity change, negative = inhibition",[4],inconclusive: 9.9%
same,Potency,PC15,"inconclusive [inhibitor, partial curve]"
Cc1nc2ccccn2c(=O)c1CCN1CCC(C(=O)c2ccc(F)cc2)CC1,"activity change, negative = inhibition",[4],inconclusive: 1.21%
same,Potency,[2],"inconclusive [inhibitor, partial curve]"
same,Potency,PC15,"inconclusive [inhibitor, single point]"
CCOC(=O)[C@@H](N)Cc1ccc(-c2cc(O[C@H](c3ccc(Cl)cc3-n3ccc(C)n3)C(F)(F)F)nc(N)n2)cc1,Potency,[5],"inconclusive [cytotoxic, single point]"
same,Potency,[6],"inconclusive [rising, full curve, poor fit]"
same,Potency,[7],"inconclusive [cytotoxic, single point]"
same,Potency,[8],active: 10.5 µM
same,Potency,[9],"inconclusive [cytotoxic, partial curve, poor fit]"
same,Potency,[10],"inconclusive [rising, partial curve, poor fit]"
same,Potency,[11],active: 26.4 µM
FC(F)(F)c1ccc(Nc2nc3ccc(Oc4ccnc(-c5ncc(C(F)(F)F)[nH]5)c4)cc3[nH]2)cc1,Potency,[12],"inconclusive [cytotoxic, single point]"
same,Potency,[8],active: 23.5 µM
same,Potency,[9],"inconclusive [cytotoxic, partial curve, poor fit]"
same,Potency,[13],"inconclusive [cytotoxic, single point]"
same,Potency,[14],"inconclusive [cytotoxic, partial curve]"
same,Potency,[15],"inconclusive [cytotoxic, single point]"
same,Potency,[11],"inconclusive [cytotoxic, single point]"
Cn1c(=O)c(F)c(Nc2ccc(I)cc2F)c2c(=O)n(CC(O)CO)cnc21 (stereo not drawn),Potency,[3],"inconclusive [inhibitor, partial curve, poor fit]"
C=C[C@]1(C)C[C@H](O)[C@H]2C(=C)C(=O)O[C@@H]2[C@H]1C(=C)CO,Potency,[3],inactive
COc1ccc(/C=C/C(=O)c2ccc(OC)cc2OC)cc1,Potency,PC15,active: 7.08 µM
CCCCCCCCCCCCCC(=O)OC(C)C,Potency,[16],inactive
same,Potency,[17],inactive
C#C[C@]1(O)CC[C@H]2[C@@H]3CCC4=Cc5oncc5C[C@]4(C)[C@H]3CC[C@@]21C,"activity, negative = inhibition",[16],inconclusive: -6.82%
same,Potency,[17],"inconclusive [activator, single point]"
C=CC(=O)Nc1ccc2ncnc(Nc3ccc(OCc4cccc(F)c4)c(Cl)c3)c2c1,Potency,[7],"inconclusive [cytotoxic, full curve, poor fit]"
same,Potency,[12],active: 5.26 µM
same,Potency,[18],active: 0.0743 µM
same,Potency,[9],"inconclusive [cytotoxic, full curve, poor fit]"
same,Potency,[13],active: 18.7 µM
same,Potency,[15],active: 8.33 µM
same,Potency,[11],active: 0.264 µM
CCCCCCc1ccc(O)cc1O,"activity change, negative = inhibition",[4],inconclusive: -20.8%
same,"activity, negative = inhibition",[16],inconclusive: -39.3% and inconclusive: -17.1%
same,Potency,[17],active: 66.8 µM
Cc1cc(C(C)(C)C)c(O)c(C(C)(C)C)c1,"activity, negative = inhibition",[16],inconclusive: 4.6%
same,activation,[17],inconclusive: -8.23%
CCS(=O)(=O)N1CC(CC#N)(n2cc(-c3ncnc4[nH]ccc34)cn2)C1,Potency,[12],"inconclusive [rising, single point]"
same,Potency,[8],"inconclusive [cytotoxic, full curve, poor fit]"
same,Potency,[18],"inconclusive [cytotoxic, partial curve, poor fit]"
same,Potency,[9],inactive
same,Potency,[10],"inconclusive [rising, partial curve]"
same,Potency,[13],"inconclusive [cytotoxic, full curve, poor fit]"
same,Potency,[14],"inconclusive [cytotoxic, partial curve, poor fit]"
same,Potency,[15],"inconclusive [cytotoxic, single point]"
same,Potency,[19],inactive
same,Potency,[11],"inconclusive [cytotoxic, partial curve, poor fit]"
O=C(NC(NC(=S)Nc1ccc(F)c([N+](=O)[O-])c1)C(Cl)(Cl)Cl)C(c1ccccc1)c1ccccc1 (stereo not drawn),Potency,[3],"inconclusive [inhibitor, single point]"
Cc1nc(N)ncc1-c1nc(N2CCOCC2)c2sc(C(C)(C)O)cc2n1,Potency,[5],"inconclusive [cytotoxic, full curve]"
same,Potency,[6],"inconclusive [cytotoxic, full curve]"
same,Potency,[7],"inconclusive [cytotoxic, full curve, poor fit]"
same,Potency,[12],active: 1.48 µM
same,Potency,[18],"inconclusive [cytotoxic, partial curve]"
same,Potency,[10],active: 1.05 µM
same,Potency,[13],active: 0.148 µM
same,Potency,[19],active: 0.0743 µM
Clc1ccc2c(c1)N=C(N1CCNCC1)c1ccccc1N2,Potency,[1],"inconclusive [falling, single point]"
CN[C@@H]1C[C@H]2O[C@@](C)([C@H]1OC)n1c3ccccc3c3c4c(c5c6ccccc6n2c5c31)C(=O)N[C@H]4O,Potency,[5],"inconclusive [cytotoxic, single point]"
same,Potency,[6],active: 2.61 µM
same,Potency,[8],active: 0.148 µM
same,Potency,[18],"inconclusive [cytotoxic, full curve]"
same,Potency,[14],"inconclusive [cytotoxic, full curve]"
same,Potency,[15],active: 0.372 µM
same,Potency,[19],"inconclusive [cytotoxic, full curve]"
COc1ccc(F)c(F)c1C(=O)c1cnc(NC2CCN(S(C)(=O)=O)CC2)nc1N,Potency,[5],active: 3.69 µM
same,Potency,[6],inactive
same,Potency,[7],active: 3.29 µM
same,Potency,[10],active: 0.296 µM
same,Potency,[14],active: 1.32 µM
same,Potency,[19],active: 1.32 µM
c1ccc(CN(CC2=NCCN2)c2ccccc2)cc1,Potency,[4],inactive
same,Potency,PC15,"inconclusive [inhibitor, partial curve, poor fit]"
